Assay results published in the BET-seq Pho4 binding data (Le et al. 2018).
This is one part of the list. Values were computed here from the reads of four pooled replicates and scatter widely.

These sequences were tested against T1, Pho4 (S. cerevisiae) (UniProt P07270) (assay: relative binding free energy (BET-seq); higher = weaker binding). Conditions: reference: library average.
T1 sequence: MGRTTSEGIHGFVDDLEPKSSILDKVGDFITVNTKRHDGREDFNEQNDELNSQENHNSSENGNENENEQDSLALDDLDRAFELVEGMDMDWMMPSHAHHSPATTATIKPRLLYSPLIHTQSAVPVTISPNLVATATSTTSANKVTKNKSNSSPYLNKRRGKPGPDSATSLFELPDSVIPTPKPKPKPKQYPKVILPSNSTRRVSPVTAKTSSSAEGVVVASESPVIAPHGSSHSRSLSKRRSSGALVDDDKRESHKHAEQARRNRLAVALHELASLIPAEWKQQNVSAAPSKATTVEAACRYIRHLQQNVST

Sequence | relative binding free energy
GGGTCCACGTGGTGTC | -0.07 kcal/mol
AGTTTCACGTGAGTGA | 0.39 kcal/mol
TGATTCACGTGATTGA | 0.44 kcal/mol
TACTTCACGTGGTAGG | 0.21 kcal/mol
ATAGACACGTGTGGAG | 0.06 kcal/mol
TTCGACACGTGATTTT | 0.14 kcal/mol
GGTTTCACGTGCTCGA | 0.3 kcal/mol
GTATTCACGTGAAATT | 0.35 kcal/mol
TGGCGCACGTGAAGGT | 0.19 kcal/mol
CGAGTCACGTGAATGG | 0.31 kcal/mol
GTTAACACGTGTTGCA | 0.12 kcal/mol
GGACACACGTGGGGGA | -0.16 kcal/mol
GGTGGCACGTGTCGTT | 0.08 kcal/mol
GTCCACACGTGTGGGT | 0.09 kcal/mol
ATGGCCACGTGGGCGT | -0.19 kcal/mol
ACGTTCACGTGGTGAG | 0.22 kcal/mol
CTCGGCACGTGTGAGT | 0 kcal/mol
GGATTCACGTGTTAAA | 0.34 kcal/mol
CTTGTCACGTGGATGA | 0.11 kcal/mol
TATTGCACGTGAATGG | 0.23 kcal/mol
GCGGCCACGTGTTGGT | -0.11 kcal/mol
GTGAGCACGTGAAAGG | 0.33 kcal/mol
AGTTTCACGTGGGAGT | 0.23 kcal/mol

Sequence | relative binding free energy
AGATGCACGTGAGCGG | 0.17 kcal/mol
TTGGCCACGTGTTCGT | -0.16 kcal/mol
GTGTGCACGTGAATTT | 0.33 kcal/mol
CCGGTCACGTGGGGTG | 0.01 kcal/mol
TGTTTCACGTGGCTAA | 0.18 kcal/mol
TGTGGCACGTGTGAGA | 0.16 kcal/mol
TGTGTCACGTGATCGT | -0.03 kcal/mol
GTCTACACGTGTTTTT | 0.16 kcal/mol
AAAGACACGTGGTAGG | -0.17 kcal/mol
ATCGTCACGTGTAAGT | 0.09 kcal/mol
GCGGGCACGTGTTGAT | 0 kcal/mol
TTGCGCACGTGAGGGC | 0.16 kcal/mol
TCTGACACGTGGGGGG | -0.04 kcal/mol
AGTGTCACGTGTGCAC | 0.08 kcal/mol
TACTACACGTGGGGGT | -0.07 kcal/mol
GGGTGCACGTGGGACG | -0.04 kcal/mol
AGAGACACGTGTGCTG | 0.1 kcal/mol
CGGGTCACGTGGCGCG | 0.1 kcal/mol
GTAGGCACGTGTGTCA | -0.18 kcal/mol
GTAATCACGTGGTTCT | 0.11 kcal/mol
TTTTGCACGTGGAATG | 0.19 kcal/mol
GATTTCACGTGTATTA | 0.15 kcal/mol
CTTGTCACGTGGTGCA | -0.05 kcal/mol

Sequence | relative binding free energy
AGCGGCACGTGTTCTT | -0.05 kcal/mol
AGCTGCACGTGACGTG | 0.19 kcal/mol
GGTCACACGTGGAGTG | 0.08 kcal/mol
TTATACACGTGTAGTT | 0.1 kcal/mol
TCGTGCACGTGTAGTA | -0.07 kcal/mol
GCGATCACGTGTGGTT | 0.28 kcal/mol
CTGTACACGTGTGCGT | 0.08 kcal/mol
AGGGTCACGTGAAGGG | 0.13 kcal/mol
AGGAGCACGTGGGGGT | -0.23 kcal/mol
TTGGCCACGTGGCGGG | -0.26 kcal/mol
TCGTGCACGTGATGCG | 0.02 kcal/mol
GCAGGCACGTGGGGCT | -0.1 kcal/mol
TTTGTCACGTGGTGCG | 0.11 kcal/mol
TCTAGCACGTGGGGGA | -0.15 kcal/mol
GCTGGCACGTGTTTAG | -0.02 kcal/mol
TTGTCCACGTGTGCTG | -0.01 kcal/mol
GGACTCACGTGGCTGG | 0.26 kcal/mol
CGGGGCACGTGTGATG | -0.11 kcal/mol
AGCGTCACGTGATTTG | 0.11 kcal/mol
TTTGGCACGTGCGGCA | -0.26 kcal/mol
GTTTACACGTGTTGGT | 0.33 kcal/mol
CGTTGCACGTGGGCGT | -0.45 kcal/mol
CGGGGCACGTGCGTTT | -0.08 kcal/mol

Sequence | relative binding free energy
GTTAGCACGTGGATGG | 0.07 kcal/mol
TAGCTCACGTGCTGGT | 0.32 kcal/mol
TCAAACACGTGGAGGT | 0.11 kcal/mol
GTAACCACGTGGTGGG | -0.11 kcal/mol
TTGGCCACGTGTAGCT | 0.04 kcal/mol
TCTTTCACGTGGAAGG | 0.28 kcal/mol
GCCGGCACGTGTGGTT | 0.05 kcal/mol
ATTGACACGTGTATGG | 0.01 kcal/mol
TCTGGCACGTGCGTAT | -0.11 kcal/mol
TACATCACGTGGTGCG | 0.13 kcal/mol
ATTATCACGTGGCTTT | 0.05 kcal/mol
TCTTGCACGTGCGTTG | 0.05 kcal/mol
ATTGGCACGTGACAGG | -0.11 kcal/mol
ATTGACACGTGGATGG | 0.03 kcal/mol
TACTGCACGTGCGGTT | -0.02 kcal/mol
GACTGCACGTGTGGTG | 0.07 kcal/mol
GGGAGCACGTGTGGAT | -0.06 kcal/mol
TGGGTCACGTGAGTTT | 0.38 kcal/mol
CTCGTCACGTGATTGG | 0.27 kcal/mol
GGGAGCACGTGGCGGC | -0.06 kcal/mol
CGGGGCACGTGAGAAT | 0.12 kcal/mol
GCATGCACGTGGGTCG | -0.15 kcal/mol
AGACACACGTGGGTGT | -0.22 kcal/mol

Sequence | relative binding free energy
TAGTTCACGTGTAAGA | 0.39 kcal/mol
CGCAGCACGTGGGTAG | -0.18 kcal/mol
ATTGTCACGTGTGCTT | 0.08 kcal/mol
AGAGTCACGTGGAGTG | 0.1 kcal/mol
CATTTCACGTGGGTTA | 0.19 kcal/mol
GGGCACACGTGGTGTT | 0.02 kcal/mol
ACGTTCACGTGGGTGA | 0.17 kcal/mol
GGGCACACGTGGGATG | -0.02 kcal/mol
AGTCACACGTGGTTGC | 0.14 kcal/mol
GGAAACACGTGGGAGC | 0.16 kcal/mol
TGTGGCACGTGTATGC | -0.07 kcal/mol
TGTTACACGTGTGGTT | 0.2 kcal/mol
ATTGGCACGTGATAGA | -0.04 kcal/mol
GTGCGCACGTGCGGAG | -0.1 kcal/mol
AAGCTCACGTGGGGTT | 0.23 kcal/mol
TGATGCACGTGGCGTT | -0.19 kcal/mol
TCAGGCACGTGAGGAT | 0.2 kcal/mol
TGGGACACGTGCCTGG | -0.12 kcal/mol
CGTGTCACGTGGTGAT | 0.06 kcal/mol
ATCCGCACGTGGGGTG | -0.26 kcal/mol
GGCTCCACGTGAAGGG | 0.61 kcal/mol
CATTGCACGTGGTTTA | 0.1 kcal/mol
ACAAGCACGTGGGAGG | -0.2 kcal/mol
